Laboratory results taken from the supplement of paper PMC8728848.
Some of the results follow.

Legend:
Assay in all cases: glycan array binding signal (z-score within array); higher = stronger binding
Details in all cases: glycan notation: IUPAC condensed, linker removed
[1] = molecular target: Fuc(a1-2)Gal(b1-4)GlcNAc(b1-3)Gal(b1-4)GlcNAc(b1-3)Gal(b1-4)GlcNAc
In short: (§1)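 The binding signal is a Z-score computed within each array and averaged over linkers. Arrays of the same protein sequence at different concentrations or buffers were also averaged together. Data originate from 3228 arrays in the Consortium for Functional Glycomics database, kept only where the protein sequence was available.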

[2] = molecular target: Fuc(a1-2)Gal(b1-4)GlcNAc(b1-3)GalNAc
In short: as §1

[3] = molecular target: Fuc(a1-2)Gal(b1-4)GlcNAc(b1-3)[Fuc(a1-2)Gal(b1-4)GlcNAc(b1-6)]GalNAc
In short: as §1

[4] = molecular target: Fuc(a1-2)Gal(b1-4)GlcNAc(b1-3)[Fuc(a1-3)[Gal(b1-4)]GlcNAc(b1-6)]Gal(b1-4)Glc
In short: as §1

[5] = molecular target: Fuc(a1-2)Gal(b1-4)GlcNAc(b1-6)GalNAc
In short: as §1

[6] = molecular target: Fuc(a1-2)Gal(b1-4)GlcNAc6S
In short: as §1

[7] = molecular target: Fuc(a1-2)Gal(b1-4)[Fuc(a1-3)]GlcNAc
In short: as §1

[8] = molecular target: Fuc(a1-2)Gal(b1-4)[Fuc(a1-3)]GlcNAc(b1-2)Man(a1-3)[Fuc(a1-2)Gal(b1-4)[Fuc(a1-3)]GlcNAc(b1-2)Man(a1-6)]Man(b1-4)GlcNAc(b1-4)[Fuc(a1-6)]GlcNAc
In short: as §1

[9] = molecular target: Fuc(a1-2)Gal(b1-4)[Fuc(a1-3)]GlcNAc(b1-2)[Fuc(a1-2)Gal(b1-4)[Fuc(a1-3)]GlcNAc(b1-4)]Man(a1-3)[Fuc(a1-2)Gal(b1-4)[Fuc(a1-3)]GlcNAc(b1-2)Man(a1-6)]Man(b1-4)GlcNAc(b1-4)GlcNAc
In short: as §1

[10] = molecular target: Fuc(a1-2)Gal(b1-4)[Fuc(a1-3)]GlcNAc(b1-3)Gal(b1-4)[Fuc(a1-3)]GlcNAc
In short: as §1

[11] = molecular target: Fuc(a1-2)Gal(b1-4)[Fuc(a1-3)]GlcNAc(b1-3)Gal(b1-4)[Fuc(a1-3)]GlcNAc(b1-3)Gal(b1-4)[Fuc(a1-3)]GlcNAc
In short: as §1

[12] = molecular target: Fuc(a1-2)Gal(b1-4)[Fuc(a1-3)]GlcNAc(b1-3)GalNAc
In short: as §1

[13] = molecular target: Fuc(a1-2)Gal(b1-4)[Fuc(a1-3)]GlcNAc(b1-3)[Neu5Ac(a2-6)Gal(b1-4)GlcNAc(b1-6)]Gal(b1-4)Glc
In short: as §1

[14] = molecular target: Fuc(a1-2)Gal3S(b1-4)GlcNAc
In short: as §1

[15] = molecular target: Fuc(a1-2)Gal6S(b1-3)GlcNAc
In short: as §1

[16] = molecular target: Fuc(a1-2)Gal6S(b1-3)GlcNAc6S
In short: as §1

Fuc(a1-2)Gal6S(b1-4)Glc = molecular target: Fuc(a1-2)Gal6S(b1-4)Glc
In short: as §1

[17] = molecular target: Fuc(a1-2)Gal6S(b1-4)Glc6S
In short: as §1

Fuc(a1-2)[Gal(a1-3)]Gal = molecular target: Fuc(a1-2)[Gal(a1-3)]Gal
In short: as §1

[18] = molecular target: Fuc(a1-2)[Gal(a1-3)]Gal(b1-3)GalNAc
In short: as §1

[19] = molecular target: Fuc(a1-2)[Gal(a1-3)]Gal(b1-3)GalNAc(b1-3)Gal(a1-4)Gal(b1-4)Glc
In short: as §1

[20] = molecular target: Fuc(a1-2)[Gal(a1-3)]Gal(b1-3)GlcNAc
In short: as §1

[21] = molecular target: Fuc(a1-2)[Gal(a1-3)]Gal(b1-3)GlcNAc(b1-2)Man(a1-3)[Fuc(a1-2)[Gal(a1-3)]Gal(b1-3)GlcNAc(b1-2)Man(a1-6)]Man(b1-4)GlcNAc(b1-4)GlcNAc
In short: as §1

[22] = molecular target: Fuc(a1-2)[Gal(a1-3)]Gal(b1-3)GlcNAc(b1-2)Man(a1-3)[Fuc(a1-2)[Gal(a1-3)]Gal(b1-3)GlcNAc(b1-2)Man(a1-6)]Man(b1-4)GlcNAc(b1-4)[Fuc(a1-6)]GlcNAc
In short: as §1

[23] = molecular target: Fuc(a1-2)[Gal(a1-3)]Gal(b1-3)GlcNAc(b1-3)GalNAc
In short: as §1

[24] = molecular target: Fuc(a1-2)[Gal(a1-3)]Gal(b1-3)GlcNAc(b1-6)GalNAc
In short: as §1

[25] = molecular target: Fuc(a1-2)[Gal(a1-3)]Gal(b1-4)Glc
In short: as §1

[26] = molecular target: Fuc(a1-2)[Gal(a1-3)]Gal(b1-4)GlcNAc
In short: as §1

[27] = molecular target: Fuc(a1-2)[Gal(a1-3)]Gal(b1-4)GlcNAc(b1-2)Man
In short: as §1

[28] = molecular target: Fuc(a1-2)[Gal(a1-3)]Gal(b1-4)GlcNAc(b1-2)Man(a1-3)[Fuc(a1-2)[Gal(a1-3)]Gal(b1-4)GlcNAc(b1-2)Man(a1-6)]Man(b1-4)GlcNAc(b1-4)GlcNAc
In short: as §1

B1: PX9896A-bth-573-26-573 (Bacteroides thetaiotaomicron) (protein)
chain: ETNNLKTKEDMYKYFGTSKSMLTHVYSYMPQGYQLFATSGGIFTEDRYSMRDCASDDGEFGAYADNIQNTNNGNWSPIKTYDDSWTLYRGIRAANSFIAEIAQVDFTRYEHDGQYTNWMKQLKYFPYEARVLRAHYFFELARRYGDIAMPLEVLTEEEANTIGKTPFSEVISFIVSECDDAANNLPDSYVNEPGAEIGRVTKGFAMAVKSKALLYAASKLHNPSMDTELWKKSAKAAIDIINTGLYSLDPQESANNLDSKEVVLMRINGDDSDFEMFNLPLRMTAGTRTSSLIPYSNYPSQNLVDAFETVNGYKVTLENTGWVCEDPAFDPQSPYENRDKRFYRAILANGMSFKDYTIETFKGGADDGIVSQGGSPTGYFLRKYIQEATSFEPGKEAVSKHHWVIYRYAETLLTYAESMVNAFNDVNYTDETYKYSALWAINEVRKNADMPLIPSMGKDEFMERLYNEWRVEFAFEDHRFWDVRRWKIADTTQRELYGVKIEKQADGTFNFYKNLYETRNWRDCMYLYPIPQSELYKNTNLNPQNTGW
- glycan array binding signal (z-score) [1]: -0.275
- glycan array binding signal (z-score) [2]: 0.126
- glycan array binding signal (z-score) [3]: -0.296
- glycan array binding signal (z-score) [4]: 0.104
- glycan array binding signal (z-score) [5]: 0.111
- glycan array binding signal (z-score) [6]: 0.169
- glycan array binding signal (z-score) [7]: 0.212
- glycan array binding signal (z-score) [8]: 0.456
- glycan array binding signal (z-score) [9]: 0.13
- glycan array binding signal (z-score) [10]: 0.235
- glycan array binding signal (z-score) [11]: -0.744
- glycan array binding signal (z-score) [12]: -0.569
- glycan array binding signal (z-score) [13]: -0.024
- glycan array binding signal (z-score) [14]: -0.346
- glycan array binding signal (z-score) [15]: -0.307
- glycan array binding signal (z-score) [16]: 1.27
- glycan array binding signal (z-score) (Fuc(a1-2)Gal6S(b1-4)Glc): -0.066
- glycan array binding signal (z-score) [17]: -0.089
- glycan array binding signal (z-score) (Fuc(a1-2)[Gal(a1-3)]Gal): 0.247
- glycan array binding signal (z-score) [18]: 0.057
- glycan array binding signal (z-score) [19]: -0.559
- glycan array binding signal (z-score) [20]: -0.445
- glycan array binding signal (z-score) [21]: 5.75
- glycan array binding signal (z-score) [22]: -0.41
- glycan array binding signal (z-score) [23]: -0.763
- glycan array binding signal (z-score) [24]: 0.399
- glycan array binding signal (z-score) [25]: -0.838
- glycan array binding signal (z-score) [26]: -0.498
- glycan array binding signal (z-score) [27]: -0.24
- glycan array binding signal (z-score) [28]: -0.04
